B1: TEV protease; numbered along this chain (parent)
chain: MGESLFKGPRDYNPISSSICHLTNESDGHTTSLYGIGFGPFIITNKHLFRRNNGTLVVQSLHGVFKVKDTTTLQQHLVDGRDMIIIRMPKDFPPFPQKLKFREPQREERICLVTTNFQTKSMSSMVSDTSCTFPSGDGIFWKHWIQTKDGQCGSPLVSTRDGFIVGIHSASNFTNTNNYFTSVPKNFMELLTNQEAQQWVSGWRLNADSVLWGGHKVFMVKPEEPFQPVKEATQL

The variants in the test derive from B1. Kind of test: raw area under fraction-flipped curve 0-4 h after induction (AUC4h, not background-subtracted), DNA-recorder readout of cleavage of the substrate (dimensionless); higher = more cleavage of the substrate by the protease variant. The note with it: temperature: 34 °C; time window: 0-4 h after rhamnose induction. The protocol:
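In vivo DNA recorder in E. coli TOP10(DE3) ΔrhaA at 34 °C. Each TEVp single-site mutant (parent TEVp 0) is paired with a single-site variant of the 7-mer TEVs (canonical ENLYFQ|S). The substrate sits between flexible linkers in a Bxb1-sfGFP-TEVs-SsrA fusion, so cleavage stabilises Bxb1 and speeds flipping of a recombination array, read by NGS. The value is the raw area under the fraction-flipped curve over 0-4 h after rhamnose induction (AUC4h), with ≥20 reads per time point. It is not background-subtracted; inactive controls average about 0.047.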

Some of the results follow. The full chains were built here from the parent and the listed change. Values near 0.05 are background.
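Further: Bxb1 expression induced with 0.2% (w/v) L-rhamnose at OD600 near 0.5, cultures sampled hourly, flipped fraction per protease–substrate barcode pair counted by paired-end Illumina sequencing.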

As to L5P, the “area with substrate ENLCFQS” value came out at 0.0616, the “area with substrate ENLDFQS” value turned out to be 0.0712, the “area with substrate ENLFFQS” value was 0.0562 and the “area with substrate ENLHFQS” value was determined as 0.0697. In addition, the “area with substrate ENLNFQS” value was 0.056 and the “area with substrate ENLRFQS” value turned out to be 0.0685.
As to F226G, the “area with substrate ENLAFQS” value turned out to be 0.0699, the “area with substrate ENLCFQS” value was 0.0695, the “area with substrate ENLDFQS” value stood at 0.0514 and the “area with substrate ENLEFQS” value came to 0.0649. For the same variant, the “area with substrate ENLFFQS” value turned out to be 0.0571, the “area with substrate ENLHFQS” value is 0.0638, the “area with substrate ENLIFQS” value was determined as 0.0843 and the “area with substrate ENLKFQS” value came to 0.0653. Further, the “area with substrate ENLLFQS” value was determined as 0.0609, the “area with substrate ENLMFQS” value was 0.0776, the “area with substrate ENLNFQS” value stood at 0.0645 and the “area with substrate ENLQFQS” value came to 0.0608. For the same variant, the “area with substrate ENLSFQS” value was found to be 0.0698.
Turning to F226Q, the “area with substrate ENLAFQS” value came to 0.0651, the “area with substrate ENLEFQS” value stood at 0.0686, the “area with substrate ENLFFQS” value came to 0.0971 and the “area with substrate ENLGFQS” value turned out to be 0.0593. Also, the “area with substrate ENLHFQS” value was determined as 0.0805, the “area with substrate ENLKFQS” value was 0.0786, the “area with substrate ENLNFQS” value was found to be 0.084 and the “area with substrate ENLQFQS” value was found to be 0.0724. Also, the “area with substrate ENLSFQS” value turned out to be 0.0583, the “area with substrate ENLVFQS” value came out at 0.0984 and the “area with substrate ENLWFQS” value was determined as 0.0832.
For the variant F218N, the “area with substrate ENLAFQS” value came out at 0.0549, the “area with substrate ENLDFQS” value was found to be 0.0572, the “area with substrate ENLFFQS” value turned out to be 0.0559 and the “area with substrate ENLHFQS” value is 0.0555. Further, the “area with substrate ENLIFQS” value amounted to 0.0485, the “area with substrate ENLKFQS” value came to 0.0412, the “area with substrate ENLLFQS” value amounted to 0.0573 and the “area with substrate ENLMFQS” value was 0.0682. The “area with substrate ENLNFQS” value amounted to 0.0666, the “area with substrate ENLPFQS” value came to 0.0603, the “area with substrate ENLQFQS” value is 0.0697 and the “area with substrate ENLRFQS” value is 0.0383. Also, the “area with substrate ENLSFQS” value came out at 0.0693, the “area with substrate ENLTFQS” value was found to be 0.0769 and the “area with substrate ENLVFQS” value came out at 0.0575.
Take R204V: the “area with substrate ENLAFQS” value was 0.0567, the “area with substrate ENLCFQS” value came to 0.0574, the “area with substrate ENLDFQS” value worked out at 0.061 and the “area with substrate ENLEFQS” value was 0.0609. The “area with substrate ENLFFQS” value is 0.0935, the “area with substrate ENLGFQS” value came out at 0.0569, the “area with substrate ENLHFQS” value came to 0.067 and the “area with substrate ENLIFQS” value was determined as 0.0762. The “area with substrate ENLKFQS” value amounted to 0.0742, the “area with substrate ENLLFQS” value came to 0.0597, the “area with substrate ENLNFQS” value was found to be 0.0511 and the “area with substrate ENLPFQS” value is 0.0523. The “area with substrate ENLQFQS” value amounted to 0.0706, the “area with substrate ENLRFQS” value stood at 0.0794, the “area with substrate ENLSFQS” value stood at 0.0728 and the “area with substrate ENLWFQS” value is 0.0726.
For R204G, the “area with substrate ENLAFQS” value worked out at 0.0648, the “area with substrate ENLCFQS” value is 0.0567, the “area with substrate ENLDFQS” value turned out to be 0.0686 and the “area with substrate ENLEFQS” value was determined as 0.0648. Also, the “area with substrate ENLFFQS” value is 0.0909, the “area with substrate ENLHFQS” value was 0.0687, the “area with substrate ENLIFQS” value was found to be 0.0889 and the “area with substrate ENLLFQS” value was determined as 0.0609. Moreover, the “area with substrate ENLMFQS” value is 0.0601, the “area with substrate ENLNFQS” value stood at 0.068, the “area with substrate ENLPFQS” value is 0.051 and the “area with substrate ENLQFQS” value amounted to 0.06. The “area with substrate ENLRFQS” value stood at 0.0562, the “area with substrate ENLSFQS” value turned out to be 0.0678, the “area with substrate ENLVFQS” value was found to be 0.0848 and the “area with substrate ENLWFQS” value is 0.0841.
With R204M, the “area with substrate ENLAFQS” value was found to be 0.0939, the “area with substrate ENLCFQS” value amounted to 0.0973, the “area with substrate ENLDFQS” value amounted to 0.0535 and the “area with substrate ENLEFQS” value was found to be 0.0759. Moreover, the “area with substrate ENLFFQS” value is 0.107, the “area with substrate ENLHFQS” value worked out at 0.0667, the “area with substrate ENLIFQS” value is 0.0958 and the “area with substrate ENLKFQS” value is 0.0701. For the same variant, the “area with substrate ENLLFQS” value came to 0.0784, the “area with substrate ENLNFQS” value worked out at 0.0569, the “area with substrate ENLPFQS” value amounted to 0.0508 and the “area with substrate ENLQFQS” value came to 0.0785. For the same variant, the “area with substrate ENLRFQS” value was 0.107, the “area with substrate ENLSFQS” value turned out to be 0.0628, the “area with substrate ENLVFQS” value amounted to 0.0995 and the “area with substrate ENLWFQS” value is 0.0759.

For the origin of these results see the supplement of paper PMC12217912.
